# Among all 310,000 compounds or so, about 2,200 (0.71%) showed an effect of 50% or more. The effect is printed as a negative number. This is one part of the list.
# Molecular target: human ether-à-go-go-related gene (hERG) potassium channel (human, UniProt Q12809)
# Assay: primary screen, population patch clamp on CHO cells stably expressing hERG
# human ether-à-go-go-related gene (hERG) potassium channel, sequence (Q12809 whole entry, looked up): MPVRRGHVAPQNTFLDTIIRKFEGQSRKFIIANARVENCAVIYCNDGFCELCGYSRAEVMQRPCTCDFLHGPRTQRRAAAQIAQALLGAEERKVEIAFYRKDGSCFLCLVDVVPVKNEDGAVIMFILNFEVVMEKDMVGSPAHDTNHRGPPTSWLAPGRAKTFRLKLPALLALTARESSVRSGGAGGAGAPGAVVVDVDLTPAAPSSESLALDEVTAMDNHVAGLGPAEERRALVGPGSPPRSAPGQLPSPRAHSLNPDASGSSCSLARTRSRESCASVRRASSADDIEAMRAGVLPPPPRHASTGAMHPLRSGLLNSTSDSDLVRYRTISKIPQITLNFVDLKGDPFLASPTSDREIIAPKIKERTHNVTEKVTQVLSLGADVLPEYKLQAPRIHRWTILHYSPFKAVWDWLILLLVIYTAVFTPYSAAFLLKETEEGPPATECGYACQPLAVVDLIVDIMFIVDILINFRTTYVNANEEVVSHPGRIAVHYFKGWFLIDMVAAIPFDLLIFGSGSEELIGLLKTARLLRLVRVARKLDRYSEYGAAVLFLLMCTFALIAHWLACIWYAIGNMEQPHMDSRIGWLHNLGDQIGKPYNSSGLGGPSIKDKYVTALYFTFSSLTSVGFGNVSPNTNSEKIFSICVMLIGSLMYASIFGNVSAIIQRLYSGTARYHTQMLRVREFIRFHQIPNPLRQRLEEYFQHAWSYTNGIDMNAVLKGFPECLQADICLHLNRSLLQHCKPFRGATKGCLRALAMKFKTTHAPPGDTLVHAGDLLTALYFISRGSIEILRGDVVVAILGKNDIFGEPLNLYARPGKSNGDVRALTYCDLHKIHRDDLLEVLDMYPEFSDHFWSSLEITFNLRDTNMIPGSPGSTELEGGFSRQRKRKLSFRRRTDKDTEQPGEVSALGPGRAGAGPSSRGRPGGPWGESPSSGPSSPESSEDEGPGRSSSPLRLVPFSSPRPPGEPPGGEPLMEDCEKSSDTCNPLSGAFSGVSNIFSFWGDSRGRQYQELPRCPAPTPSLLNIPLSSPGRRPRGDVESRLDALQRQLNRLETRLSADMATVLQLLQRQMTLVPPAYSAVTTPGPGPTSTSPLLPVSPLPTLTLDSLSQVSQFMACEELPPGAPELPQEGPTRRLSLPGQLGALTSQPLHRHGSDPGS
row,Structure (SMILES),"hERG current change (%, negative = inhibition) at 1uM"
1,CCOC(=O)c1sc(NC(=O)c2cc3c(s2)CCC(C)C3)nc1C (stereo not shown),9.63%
2,Fc1ccc(-c2csc3nnc(SCc4cccnc4)n23)cc1,-20.6%
3,CC1(C)N=C2C(=[N+]1[O-])CCC/C2=N\O,-5.64%
4,Cc1cccc2cc(CN(CCCN(C)C)C(=S)NCCc3ccccc3)c(=O)[nH]c12,-48.8%
5,CC(=O)Nc1ccc(NC(=O)COc2ccc3c(c2)CCC3)cc1,8.65%
6,CCN(CC)C(=O)CSc1nc(O)cc(=O)n1C,10.8%
7,Cn1c2ccccc2c2cc(/C=C(\NC(=O)c3ccccc3)C(=O)O)ccc21,10%
8,CC(=O)N1CCc2c(sc(NC(=O)CN3C(=O)c4ccccc4C3=O)c2C(N)=O)C1,14.1%
9,Cc1cc(OCC(=O)N2CCN(c3ccccc3)CC2)c2c(C)cc(=O)oc2c1,9.51%
10,COCCNC(=O)C1CC(=O)N(CCc2ccccc2)C1 (stereo not shown),18%
11,CO/N=C/c1ccc(N2CCN(C(=O)c3ccc(C)cc3)CC2)c([N+](=O)[O-])c1,-67.2%
12,COc1ccccc1CN1CC(C(=O)N2CCCCCCC2)CCC1=O (stereo not shown),9.94%
13,C=C1[C@@H](C)[C@H]2[C@H](Cc3ccccc3)NC(=O)[C@]23OC(=O)/C=C/[C@H](O)CCC[C@@H](C)C/C=C/[C@H]3[C@@H]1O,21.1%
14,COC(=O)Nc1nnc(CCc2ccccc2)s1,2.86%
15,Cc1cc(Cl)c2oc(C(=O)N(C)CC3CCOCC3)c(C)c2c1,19.8%
16,CCOc1ccc(-c2cc(C(=O)N3CCC(C)CC3)c3ccccc3n2)cc1,10.3%
17,O=C(Nc1ccc(NC(=O)c2ccc3c(c2)OCCO3)cc1)c1ccccc1,1.48%
18,Cc1cc(C)cc(N(CC(=O)NC2CCC(C)CC2)S(=O)(=O)c2c(C)noc2C)c1 (stereo not shown),7.37%
19,CSc1nnc2c(n1)OC(c1cn(C)c3ccccc13)N(C(C)=O)c1ccccc1-2 (stereo not shown),12.1%
20,CC(Cl)C(=O)NC(=O)NC12CC3CC(CC(C3)C1)C2 (stereo not shown),17.7%
21,O=C(CN1CCCC1=O)NC1C2CC3CC(C2)CC1C3 (stereo not shown),9.69%
22,C/C(=N\Nc1ccccc1)c1c(O)n(Cc2ccccc2)c(=O)[nH]c1=O,14.5%

row,Structure (SMILES),"hERG current change (%, negative = inhibition) at 1uM"
1,CCCCOC(=O)CCc1c(C)[nH]c(=S)[nH]c1=O,6.96%
2,Cc1ccc(COc2ccc(/C=N/NC(=O)CN3CCCCC3)cc2)cc1,12.7%
3,Cc1ccc(-n2ccnc(SCC(=O)NC3CCCC3)c2=O)cc1F,1.28%
4,CC(C(=O)N1CCN(Cc2ccc3c(c2)OCO3)CC1)n1cc([N+](=O)[O-])cn1 (stereo not shown),10.1%
5,CC(C)(C)OC(=O)NCCc1nnc(SCc2ccccc2)o1,10.2%
6,Cc1cc(C(F)(F)F)n2nc(-c3cnn(C)c3C(F)(F)F)cc2n1,13.1%
7,COC(=O)c1ccc(S(=O)(=O)c2ccccc2)c(N)c1,8.94%
8,O=C(Cc1ccc(S(=O)(=O)N2CCOCC2)s1)Nc1cc(Cl)ccc1Cl,7.49%
9,CC1=C(C(=O)NCCCOC(C)C)C2(CCC(C)CC2)OC1=O (stereo not shown),14.9%
10,C[C@](N)(CCP(=O)(O)O)C(=O)O.Cl,-5.32%
11,Cc1ccc2nc(-c3cccnc3)cc(C(=O)Nc3ccccc3[N+](=O)[O-])c2c1,-11.5%
12,COc1ccc(CNC(=O)C2CCCN(S(=O)(=O)c3ccc(-n4cnnn4)cc3)C2)cc1 (stereo not shown),9.01%
13,CCOC(=O)c1[nH]c2ccc(Br)cc2c1NC(=O)CCN1CCC(C(=O)OCC)CC1,-43.5%
14,COCCNC(=O)C(=O)NCC1OCCN1S(=O)(=O)c1ccc2c(c1)OCCO2 (stereo not shown),12.7%
15,COc1cc(C)ccc1OCCOCCOc1cccc2ccc(C)nc12.O=C(O)C(=O)O,-1.27%
16,CCCc1nc(Cl)c(C#N)c2c1CCCC2,12.6%
17,O=C1CC(SCCO)C(=O)N1c1ccccc1 (stereo not shown),-6.42%
18,O=C(CSc1cccc2cccnc12)N/N=C/c1cccnc1,15.8%
19,CCCC1CCC(=NNC(=S)NCCc2ccccc2)CC1 (stereo not shown),7%
20,CC(=O)Nc1ccc(N=Cc2ccc(OCc3ccccc3)cc2)cc1,5.99%
21,Cn1c(-c2ccc(F)cc2)cnc1SCC(=O)Nc1ccccc1,3.41%
22,CC1Cc2ccccc2N1C(=O)C1CCCN(S(=O)(=O)c2cccc3cccnc23)C1 (stereo not shown),5.33%

row,Structure (SMILES),"hERG current change (%, negative = inhibition) at 1uM"
1,CCN(CC)C(=O)Oc1nnc(SC(C)C)n1-c1ccc(Cl)cc1,15.6%
2,CCC1CCCCN1CCCNC(=O)CC1Oc2ccc(C)cc2NC1=O (stereo not shown),-1.36%
3,C/C(=N\NC(=O)c1ccc([N+](=O)[O-])cc1)c1cc2ccccc2oc1=O,2.18%
4,NC1=NC(=Nc2ccc(S(N)(=O)=O)cc2)c2ccccc21,11.6%
5,COc1ccc(/C(O)=C2\C(=O)C(=O)N(Cc3ccco3)C2c2ccc(OC)cc2OC)cc1 (stereo not shown),8.05%
6,COC(=O)C(Cc1ccc(O)cc1)NC(=O)CCc1nc2ccccc2s1 (stereo not shown),11.7%
7,Cc1[nH]c2ccccc2c1SCc1n[nH]c(=S)n1C,17.7%
8,O=C(CSc1nnc2ccccn12)NCc1cccs1,18%
9,O=C(NNC(=O)c1ccc(NC(=O)C2CC2)cc1)c1ccc(F)cc1,8.13%
10,O=C(CSc1nc2ccccc2n1S(=O)(=O)c1cccc([N+](=O)[O-])c1)NCCc1ccccc1,10.7%
11,CCOc1ccccc1N(C(=O)Cn1nnnc1-c1ccc(C)o1)C(CC)C(=O)NC(C)(C)C (stereo not shown),-5.99%
12,CC(CN1CCN(C)CC1)OC(=O)c1ccccc1.Cl (stereo not shown),15%
13,c1ccc(-n2cccc2)c(N2CCCCC2)c1,3.78%
14,COc1ccc(CNCc2cccc(C)c2)cc1.O=C(O)C(=O)O,0.793%
15,CC(C)(C)NC(=O)C(OC(=O)c1ccco1)c1ccccc1F (stereo not shown),7.48%
16,Clc1ccc2nncn2n1,11%
17,O=C(Nc1ccnn1C1CCN(C(=O)c2ccc(F)c(Cl)c2)CC1)C1CC1,15.9%
18,Cc1ccc(N2CC(C(=O)Nc3nccs3)CC2=O)cc1 (stereo not shown),3.72%
19,C[C@H](NC(=O)C1CCN(S(=O)(=O)c2ccccc2)CC1)C(=O)NCc1ccc(Cl)c(Cl)c1,15.8%
20,CCCCn1c(N)c(N(CCOC)C(=O)COC(=O)CCOc2ccc(C)cc2)c(=O)[nH]c1=O,9.05%
21,O=C(CSc1c(F)c(F)cc(F)c1F)Nc1ccc(C2SCCS2)cc1,7.36%
22,Cc1ccc(S(=O)(=O)N2CCN(C(=O)COC(=O)Cc3ccc(Cl)cc3)CC2)c(C)c1,17.8%

row,Structure (SMILES),"hERG current change (%, negative = inhibition) at 1uM"
1,Cc1ccc(C2(C)NC(=O)N(CC(=O)N(Cc3ccccc3)C(C)(C)C)C2=O)cc1 (stereo not shown),6.95%
2,S=c1[nH]nc(-c2ccccn2)n1/N=C/c1cccs1,6.66%
3,CCC(C)(C)NC(=O)C1CCCN(S(=O)(=O)c2ccc3c(c2)CC(C)N3C(=O)C2CC2)C1 (stereo not shown),4.91%
4,COc1ccc(CCN=C(N)NS(=O)(=O)c2ccc3ccccc3c2)cc1,6.97%
5,CN(C(=O)Cn1cccc1C1=NC(c2ccccc2)CO1)c1ccccc1 (stereo not shown),-1.03%
6,CCOC(=O)Cn1nc(-c2ccccc2)c2cnc3ccc(C)cc3c21,17.9%
7,CC(C)(C)c1ccc(O)c(/C=N\O)c1,10.9%
8,COc1ccc(CC2(CCc3ccncc3)C(=O)NC(=O)NC2=O)cc1,18.6%
9,CCOC(=O)N1CCN(C2CC(=O)N(c3ccc(F)cc3)C2=O)CC1 (stereo not shown),5.2%
10,CC(=O)N(C(C)=O)S(=O)(=O)c1ccc(N=NN2CCCCC2)cc1,11.6%
11,COc1ccc(OC)c(S(=O)(=O)N(C)CC(=O)N2CCc3ccccc3C2)c1,-2.4%
12,CC[n+]1c(C)sc2c(C)cc(C)cc21.[I-],17.7%
13,COC(=O)[C@H](Cc1ccccc1)NC(=O)c1cc(COc2c(F)cccc2F)on1,14.6%
14,COc1cccc(C(=O)NN2C(=S)N(c3ccccc3)C(=O)C2CC(N)=O)c1 (stereo not shown),16.3%
15,CCOC(=O)c1ccc(N2CCN(c3cc(C)ccc3C)CC2)c(N)c1,1.1%
16,CC(C)C(NS(=O)(=O)c1ccc2c(c1)OCCCO2)C(=O)O (stereo not shown),13.9%
17,Oc1ccc(Br)cc1-c1cc(-c2ccc(Cl)cc2)n[nH]1,11.6%
18,Cc1ccc(S(=O)(=O)C2(C(=O)O)CCCC2)cc1C,10.1%
19,COc1cc(SC)ccc1C(=O)OCC(=O)N1CCN(C(C)=O)CC1,-4.08%
20,COc1cc(OC)c(NS(=O)(=O)c2cc(Br)cnc2N)cc1Cl,14.5%
21,COc1ccc(NC2CCCN(C(=O)CCN3CCOCC3)C2)cc1 (stereo not shown),17.4%
22,CCOc1ccc(N2C(=O)/C(=C\c3ccccc3OC)S(=O)(=O)C2c2cccc([N+](=O)[O-])c2)cc1 (stereo not shown),7.37%
